# Data taken from the supplement of paper PMC8728848.
# The other results are listed elsewhere or left out.
# B1: PFL (Pseudomonas fluorescens) (protein)
# chain: MSKYAVANQWGGSSAPWHPGGTWVLGARDNQNVVAIEIKSGDGGKSFTGTMTYAGEGPIGFKAQRTGQNQYNVENQWGGNDAPWHPGGKWVIGGRDNQNVIALSVTSSDGGKNLSGTNTYANEGPIGFRGQIE
# Key:
# Assay in all cases: glycan array binding signal (z-score within array); higher = stronger binding
# Conditions in all cases: glycan notation: IUPAC condensed, linker removed
# [1] = molecular target: Neu5Ac(a2-3)Gal(b1-3)GlcNAc6S
# In short: (§1)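 Columns mapping to the same glycan were averaged after glycan names were converted to IUPAC-condensed notation. The data come from 3228 arrays in the Consortium for Functional Glycomics database, limited to those with an available protein sequence. Binding is reported as a within-array Z-score averaged across arrays of one protein sequence and across linkers.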
# [2] = molecular target: Neu5Ac(a2-3)Gal(b1-3)[Fuc(a1-4)]GlcNAc
# In short: as §1
# [3] = molecular target: Neu5Ac(a2-3)Gal(b1-3)[Fuc(a1-4)]GlcNAc(b1-3)Gal(b1-3)[Fuc(a1-4)]GlcNAc
# In short: as §1
# [4] = molecular target: Neu5Ac(a2-3)Gal(b1-3)[Fuc(a1-4)]GlcNAc(b1-3)Gal(b1-4)[Fuc(a1-3)]GlcNAc
# In short: as §1
# [5] = molecular target: Neu5Ac(a2-3)Gal(b1-3)[GlcNAc(b1-6)]GalNAc
# In short: as §1
# [6] = molecular target: Neu5Ac(a2-3)Gal(b1-3)[Neu5Ac(a2-6)]GalNAc
# In short: as §1
# [7] = molecular target: Neu5Ac(a2-3)Gal(b1-3)[Neu5Ac(a2-6)]GlcNAc(b1-3)[Fuc(a1-3)[Gal(b1-4)]GlcNAc(b1-6)]Gal(b1-4)Glc
# In short: as §1
# [8] = molecular target: Neu5Ac(a2-3)Gal(b1-3)]Neu5Ac(a2-3)Gal(b1-4)]GlcNAc
# In short: as §1
# Neu5Ac(a2-3)Gal(b1-4)Glc = molecular target: Neu5Ac(a2-3)Gal(b1-4)Glc
# In short: as §1
# [9] = molecular target: Neu5Ac(a2-3)Gal(b1-4)GlcNAc
# In short: as §1
# [10] = molecular target: Neu5Ac(a2-3)Gal(b1-4)GlcNAc(b1-2)Man
# In short: as §1
# [11] = molecular target: Neu5Ac(a2-3)Gal(b1-4)GlcNAc(b1-2)Man(a1-3)[GlcNAc(b1-4)][Neu5Ac(a2-3)Gal(b1-4)GlcNAc(b1-2)Man(a1-6)]Man(b1-4)GlcNAc(b1-4)GlcNAc
# In short: as §1
# [12] = molecular target: Neu5Ac(a2-3)Gal(b1-4)GlcNAc(b1-2)Man(a1-3)[Neu5Ac(a2-3)Gal(b1-4)GlcNAc(b1-2)Man(a1-6)]Man(b1-4)GlcNAc(b1-4)GlcNAc
# In short: as §1
# [13] = molecular target: Neu5Ac(a2-3)Gal(b1-4)GlcNAc(b1-2)Man(a1-3)[Neu5Ac(a2-3)Gal(b1-4)GlcNAc(b1-2)Man(a1-6)]Man(b1-4)GlcNAc(b1-4)[Fuc(a1-6)]GlcNAc
# In short: as §1
# [14] = molecular target: Neu5Ac(a2-3)Gal(b1-4)GlcNAc(b1-2)Man(a1-3)[Neu5Ac(a2-6)Gal(b1-4)GlcNAc(b1-2)Man(a1-6)]Man(b1-4)GlcNAc(b1-4)GlcNAc
# In short: as §1
# [15] = molecular target: Neu5Ac(a2-3)Gal(b1-4)GlcNAc(b1-2)[Neu5Ac(a2-3)Gal(b1-4)GlcNAc(b1-4)]Man(a1-3)[GlcNAc(b1-4)][Neu5Ac(a2-3)Gal(b1-4)GlcNAc(b1-2)[Neu5Ac(a2-3)Gal(b1-4)GlcNAc(b1-6)]Man(a1-6)]Man(b1-4)GlcNAc(b1-4)GlcNAc
# In short: as §1
# [16] = molecular target: Neu5Ac(a2-3)Gal(b1-4)GlcNAc(b1-2)[Neu5Ac(a2-3)Gal(b1-4)GlcNAc(b1-4)]Man(a1-3)[GlcNAc(b1-4)][Neu5Ac(a2-3)Gal(b1-4)GlcNAc(b1-4)Man(a1-6)]Man(b1-4)GlcNAc(b1-4)GlcNAc
# In short: as §1
# [17] = molecular target: Neu5Ac(a2-3)Gal(b1-4)GlcNAc(b1-2)[Neu5Ac(a2-3)Gal(b1-4)GlcNAc(b1-6)]Man(a1-6)[Neu5Ac(a2-3)Gal(b1-4)GlcNAc(b1-2)Man(a1-3)]Man(b1-4)GlcNAc(b1-4)GlcNAc
# In short: as §1
# [18] = molecular target: Neu5Ac(a2-3)Gal(b1-4)GlcNAc(b1-2)[Neu5Ac(a2-3)Gal(b1-4)GlcNAc(b1-6)]Man(a1-6)[Neu5Ac(a2-3)Gal(b1-4)GlcNAc(b1-2)Man(a1-3)][GlcNAc(b1-4)]Man(b1-4)GlcNAc(b1-4)GlcNAc
# In short: as §1
# [19] = molecular target: Neu5Ac(a2-3)Gal(b1-4)GlcNAc(b1-3)Gal
# In short: as §1
# [20] = molecular target: Neu5Ac(a2-3)Gal(b1-4)GlcNAc(b1-3)Gal(b1-3)GlcNAc
# In short: as §1
# [21] = molecular target: Neu5Ac(a2-3)Gal(b1-4)GlcNAc(b1-3)Gal(b1-4)GlcNAc
# In short: as §1
# [22] = molecular target: Neu5Ac(a2-3)Gal(b1-4)GlcNAc(b1-3)Gal(b1-4)GlcNAc(b1-2)Man(a1-3)[Neu5Ac(a2-3)Gal(b1-4)GlcNAc(b1-3)Gal(b1-4)GlcNAc(b1-2)Man(a1-6)]Man(b1-4)GlcNAc(b1-4)GlcNAc
# In short: as §1
# [23] = molecular target: Neu5Ac(a2-3)Gal(b1-4)GlcNAc(b1-3)Gal(b1-4)GlcNAc(b1-3)Gal(b1-4)GlcNAc
# In short: as §1
# [24] = molecular target: Neu5Ac(a2-3)Gal(b1-4)GlcNAc(b1-3)Gal(b1-4)GlcNAc(b1-3)Gal(b1-4)GlcNAc(b1-2)Man(a1-3)[Neu5Ac(a2-3)Gal(b1-4)GlcNAc(b1-3)Gal(b1-4)GlcNAc(b1-3)Gal(b1-4)GlcNAc(b1-2)Man(a1-6)]GalNAc
# In short: as §1
# [25] = molecular target: Neu5Ac(a2-3)Gal(b1-4)GlcNAc(b1-3)Gal(b1-4)GlcNAc(b1-3)GalNAc
# In short: as §1
# [26] = molecular target: Neu5Ac(a2-3)Gal(b1-4)GlcNAc(b1-3)Gal(b1-4)GlcNAc(b1-3)[Neu5Ac(a2-3)Gal(b1-4)GlcNAc(b1-3)Gal(b1-4)GlcNAc(b1-6)]GalNAc
# In short: as §1
# [27] = molecular target: Neu5Ac(a2-3)Gal(b1-4)GlcNAc(b1-3)Gal(b1-4)GlcNAc(b1-6)[Gal(b1-3)]GalNAc
# In short: as §1
# [28] = molecular target: Neu5Ac(a2-3)Gal(b1-4)GlcNAc(b1-3)Gal(b1-4)[Fuc(a1-3)]GlcNAc
# In short: as §1
# [29] = molecular target: Neu5Ac(a2-3)Gal(b1-4)GlcNAc(b1-3)GalNAc
# In short: as §1
# [30] = molecular target: Neu5Ac(a2-3)Gal(b1-4)GlcNAc(b1-3)[Neu5Ac(a2-3)Gal(b1-4)GlcNAc(b1-6)]GalNAc
# In short: as §1
# [31] = molecular target: Neu5Ac(a2-3)Gal(b1-4)GlcNAc(b1-6)GalNAc
# In short: as §1
# [32] = molecular target: Neu5Ac(a2-3)Gal(b1-4)GlcNAc(b1-6)[Gal(b1-3)]GalNAc
# In short: as §1
# [33] = molecular target: Neu5Ac(a2-3)Gal(b1-4)GlcNAc(b1-6)[Neu5Ac(a2-3)Gal(b1-3)]GalNAc
# In short: as §1
# [34] = molecular target: Neu5Ac(a2-3)Gal(b1-4)GlcNAc6S
# In short: as §1
# [35] = molecular target: Neu5Ac(a2-3)Gal(b1-4)[Fuc(a1-3)]GlcNAc
# In short: as §1
# [36] = molecular target: Neu5Ac(a2-3)Gal(b1-4)[Fuc(a1-3)]GlcNAc(b1-2)Man
# In short: as §1
# [37] = molecular target: Neu5Ac(a2-3)Gal(b1-4)[Fuc(a1-3)]GlcNAc(b1-3)Gal
# In short: as §1
# [38] = molecular target: Neu5Ac(a2-3)Gal(b1-4)[Fuc(a1-3)]GlcNAc(b1-3)Gal(b1-4)GlcNAc
# In short: as §1
# [39] = molecular target: Neu5Ac(a2-3)Gal(b1-4)[Fuc(a1-3)]GlcNAc(b1-3)Gal(b1-4)[Fuc(a1-3)]GlcNAc(b1-3)Gal(b1-4)[Fuc(a1-3)]GlcNAc
# In short: as §1
# [40] = molecular target: Neu5Ac(a2-3)Gal(b1-4)[Fuc(a1-3)]GlcNAc(b1-3)GalNAc
# In short: as §1
# [41] = molecular target: Neu5Ac(a2-3)Gal(b1-4)[Fuc(a1-3)]GlcNAc(b1-6)[Gal(b1-3)]GalNAc
# In short: as §1
# [42] = molecular target: Neu5Ac(a2-3)Gal(b1-4)[Fuc(a1-3)]GlcNAc(b1-6)[Neu5Ac(a2-3)Gal(b1-3)]GalNAc
# In short: as §1
# [43] = molecular target: Neu5Ac(a2-3)Gal(b1-4)[Fuc(a1-3)]GlcNAc6S
# In short: as §1
# [44] = molecular target: Neu5Ac(a2-3)Gal6S(b1-4)GlcNAc
# In short: as §1
binder,measurement,setting,value
B1,glycan array binding signal (z-score),[1],-0.109
same,glycan array binding signal (z-score),[2],-0.12
same,glycan array binding signal (z-score),[3],0.044
same,glycan array binding signal (z-score),[4],-0.04
same,glycan array binding signal (z-score),[5],-0.113
same,glycan array binding signal (z-score),[6],-0.069
same,glycan array binding signal (z-score),[7],-0.109
same,glycan array binding signal (z-score),[8],-0.111
same,glycan array binding signal (z-score),Neu5Ac(a2-3)Gal(b1-4)Glc,-0.112
same,glycan array binding signal (z-score),[9],-0.118
same,glycan array binding signal (z-score),[10],-0.099
same,glycan array binding signal (z-score),[11],-0.117
same,glycan array binding signal (z-score),[12],-0.111
same,glycan array binding signal (z-score),[13],-0.108
same,glycan array binding signal (z-score),[14],-0.117
same,glycan array binding signal (z-score),[15],-0.114
same,glycan array binding signal (z-score),[16],-0.117
same,glycan array binding signal (z-score),[17],0.069
same,glycan array binding signal (z-score),[18],-0.116
same,glycan array binding signal (z-score),[19],-0.107
same,glycan array binding signal (z-score),[20],-0.116
same,glycan array binding signal (z-score),[21],-0.12
same,glycan array binding signal (z-score),[22],-0.103
same,glycan array binding signal (z-score),[23],-0.121
same,glycan array binding signal (z-score),[24],-0.101
same,glycan array binding signal (z-score),[25],-0.113
same,glycan array binding signal (z-score),[26],-0.106
same,glycan array binding signal (z-score),[27],-0.115
same,glycan array binding signal (z-score),[28],-0.114
same,glycan array binding signal (z-score),[29],-0.117
same,glycan array binding signal (z-score),[30],-0.116
same,glycan array binding signal (z-score),[31],-0.114
same,glycan array binding signal (z-score),[32],-0.116
same,glycan array binding signal (z-score),[33],-0.108
same,glycan array binding signal (z-score),[34],-0.115
same,glycan array binding signal (z-score),[35],-0.119
same,glycan array binding signal (z-score),[36],-0.119
same,glycan array binding signal (z-score),[37],-0.117
same,glycan array binding signal (z-score),[38],-0.103
same,glycan array binding signal (z-score),[39],-0.113
same,glycan array binding signal (z-score),[40],-0.078
same,glycan array binding signal (z-score),[41],-0.107
same,glycan array binding signal (z-score),[42],-0.096
same,glycan array binding signal (z-score),[43],-0.117
same,glycan array binding signal (z-score),[44],-0.118
